Data from the antibiotic and cytotoxicity screens of Wong et al. (2023).
The other results are listed elsewhere or left out.

These compounds were tested on HepG2 (assay: cytotoxicity call (relative viability < 0.9)). Details: 10 µM.

**Q.** How did the cytotoxicity call turn out when Cc1cc(C)c(NC(=O)CN(CC(=O)O)CC(=O)O)c(C)c1Br was run?
**A.** inactive

**Q.** Clc1ccc(C(c2ccccc2Cl)C(Cl)Cl)cc1 (stereo not drawn) was tested. Which cytotoxicity call did it give?
**A.** inactive

**Q.** For CCCCC(CC)COC(=O)CC(C(=O)OCC(CC)CCCC)S(=O)(=O)[O-].[Na+] (stereo not drawn), which cytotoxicity call is on record?
**A.** inactive

**Q.** Cc1noc(C)c1NC(=O)N(C)C[C@H]1Oc2c(NC(=O)C3CC3)cccc2C(=O)N([C@H](C)CO)C[C@@H]1C was tested. Which cytotoxicity call did it give?
**A.** inactive

**Q.** With C[C@@H]1CN([C@H](C)CO)C(=O)c2cc(NC(=O)CCC(F)(F)F)ccc2O[C@H]1CN(C)Cc1ccc(Oc2ccccc2)cc1 as the compound, how does the cytotoxicity call read?
**A.** inactive

**Q.** For COc1cc(-c2coc3cc(O[C@@H]4O[C@H](CO)[C@@H](O)[C@H](O)[C@H]4O)c(OC)c(O)c3c2=O)cc(O)c1OC, which cytotoxicity call is on record?
**A.** inactive

**Q.** With C[C@H]1CN([C@@H](C)CO)C(=O)c2cccc(NC(=O)Nc3ccc4c(c3)OCO4)c2O[C@@H]1CN(C)Cc1ccc(C(=O)Nc2ccccc2N)cc1 as the compound, how does the cytotoxicity call read?
**A.** inactive

**Q.** For O=C(NCCN1CCOCC1)C(=O)NC[C@H]1COc2ccccc2O1, which cytotoxicity call is on record?
**A.** inactive

**Q.** With CCS(=O)(=O)Nc1ccc2c(c1)C(=O)N(C)[C@@H]1CC[C@@H](CC(=O)NCCCN3CCOCC3)O[C@@H]1CO2 as the compound, how does the cytotoxicity call read?
**A.** inactive

**Q.** How did the cytotoxicity call turn out when CO[C@@H]1CN(C)C(=O)c2ccc(NC(C)=O)cc2OC[C@H](C)N(S(=O)(=O)c2cn(C)cn2)C[C@H]1C was run?
**A.** inactive

**Q.** C[C@@H]1CN([C@@H](C)CO)C(=O)Cc2cc(NC(=O)CCCN(C)C)ccc2O[C@H]1CN(C)Cc1ccncc1 was tested. Which cytotoxicity call did it give?
**A.** inactive

**Q.** Which cytotoxicity call does the source give for CCS(=O)(=O)N1CC[C@]2(CN(c3cnn(C)c3)C(=O)CN2C(C)=O)C1 here?
**A.** inactive

**Q.** For CC(C)C[C@@H]1C(=O)O[C@H](C)C(=O)N(C)[C@@H](CC(C)C)C(=O)O[C@H](Cc2ccc(N3CCOCC3)cc2)C(=O)N(C)[C@@H](CC(C)C)C(=O)O[C@H](C)C(=O)N(C)[C@@H](CC(C)C)C(=O)O[C@H](Cc2ccc(N3CCOCC3)cc2)C(=O)N1C, which cytotoxicity call is on record?
**A.** inactive
